From ChEMBL document CHEMBL4888484, “Replenishing the malaria drug discovery pipeline: Screening and hit evaluation of the MMV Hit Generation Library 1 (HGL1) against asexual blood stage Plasmodium falciparum ,using a nano luciferase reporter read-out” (2022)
Hit rate of the full screen: of about 150,000 compounds, about 540 (0.36%) showed an effect of 50% or more. Some of the results follow.

Test system: Plasmodium falciparum
Assay: Primary screen in NF54 nanoGlo assay, in single point, at 2uM, 72h; a lower Z score goes with more inhibition
Type: functional, Erythrocyte
Details: timepoint 72 hour

Row | SMILES | % Inhibition [%] | Z score
1 | CCCS(=O)(=O)NC[C@H](C)N1CCC(CC)(CC)C1 | -10 | 1.8
2 | Cc1ccc(NS(=O)(=O)c2cc3n(c2)CCCNC3=O)c(F)c1 | -22 | 2.62
3 | CN1CCCC(CNC(=O)CCC2CCCOC2)C1c1ccccc1 (stereo unspecified) | -1 | 0.12
4 | COc1ccc([C@@H]2Cn3cc(C(=O)NCCCN4CCOCC4)nc3C(=O)N2)cc1 | -11 | 1.52
5 | C[C@H]1CCCCN1CCCNC(=O)CCc1nnc(C(=O)Nc2ccc(F)cc2)s1 | -16 | 3.06
6 | CC(C)n1c(=O)[nH]c2ccc(C(=O)N3CCC34CCN(C)CC4)cc21 | -11 | 1.5
7 | O=C(NCc1ccc[nH]c1=O)c1cccc2c1CCCN2 | 1 | -0.27
8 | COC[C@@H]1CCC[C@@H]1NC(=O)Nc1ccc(F)cc1Cl | 5 | -0.96
9 | CCC(CC)n1ccc(Cn2cc(CN3CCOC[C@H]3C)nn2)n1 | -11 | 1.74
10 | O=S(=O)(Nc1ncn(-c2ccccc2)n1)c1ccnn1C1CCC1 | -10 | 1.64
11 | Cc1ccc2nc(Cn3cc(-c4nc(C)n5ccccc45)nn3)cn2c1 | -19 | 3.64
12 | N#Cc1ccc(NCCCC(F)(F)F)cc1 | 0 | -0.02
13 | COc1cccc(C(=O)N2CCNC[C@H]2C(=O)N2CCN(C)CC2)c1C | -5 | 0.73
14 | Cc1cc(NC(=O)Cn2ccc(-c3scnc3C)n2)n(C2CCCCC2)n1 | -1 | 0.09
15 | C[C@H]1CCCN(C(=O)CNc2cccc3ccccc23)C1 | -5 | 0.68
16 | O=C(c1cccnc1)N1C[C@@H]2C[C@@H](O)CN2C2(CN(Cc3ccc(F)cc3)C2)C1 | -1 | 0.06
17 | c1cc(N2CCCCC2)ncc1-c1nc2c([nH]1)CCNC2 | 5 | -0.94
18 | CCc1cc2c(N3CCCN(CC(N)=O)CC3)ncnc2s1 | 1 | -0.09
19 | Cc1cccc2c1OCC[C@@H]2NC(=O)Nc1nnc(-c2ccsc2)s1 | 0 | 0.03
20 | CCNC(=O)c1ccc(COc2ccc3c(c2)[C@H](c2ccc(F)cc2)N(C(=O)C2CCCC2)CC3)o1 | 9 | -0.99
21 | COc1ccc(C)cc1NC(=O)CNC(=O)COC(=O)COc1ccc2ccccc2c1 | -4 | 0.62
22 | Cc1c(-c2ccc(Cl)cc2)nnn1C[C@@H](O)Cn1cccn1 | -15 | 2

Row | SMILES | % Inhibition [%] | Z score
23 | CCC(C)n1nc(C(=O)NCC2CCCOC2C(C)C)cc1C (stereo unspecified) | 3 | -0.36
24 | OC[C@H]1CN(c2ncc(Cl)cc2C(F)(F)F)C[C@H]1CN1CCCCC1 | -9 | 0.85
25 | CCc1ccc(CCCN(C)Cc2cccnc2)cc1 | -9 | 1.18
26 | CC1CCOC1C(=O)Nc1cnns1 (stereo unspecified) | -5 | 0.94
27 | COC[C@H]1CCCN(c2nc(C)cc(C#N)n2)CC1 | 24 | -2.75
28 | CCn1cc(C(=O)C(=O)N(C[C@H]2CCCO2)C2CCC(C)CC2)cn1 (stereo partly specified) | -7 | 0.6
29 | O=C([C@@H]1CCCN1C(=O)c1cccs1)N1CCCCCCC1 | -2 | 0.16
30 | Cc1n[nH]c(C)c1CCCN[C@@H](C)CN1CCCCCC1 | -11 | 2.17
31 | CNC(=O)Cn1c(=O)n(Cc2ccco2)c2ccc(C(F)(F)F)cc21 | -9 | 1.5
32 | O=C(c1ccsc1)N1CC(n2ccnn2)C1 | -11 | 2.08
33 | Cc1nc(C(C)(C)NC(=O)[C@@H]2COCCO2)sc1C | -9 | 0.97
34 | CN(CCc1ccccc1F)C(=O)c1nc(=O)[nH][nH]1 | 3 | -0.45
35 | CN1CCN(S(=O)(=O)N2CCN(C(=O)CCc3cccc(F)c3)CC2)CC1 | -9 | 1.03
36 | CCn1ccc(-c2c(-c3ccccc3)ncn2CCN(C)S(C)(=O)=O)n1 | -6 | 0.99
37 | C=CCNC(=O)O[C@@H]1CC[C@]2(C)C(CC[C@@H](O)[C@H]2CC(=O)N2CCC[C@H]2CO)[C@]1(C)CO (stereo partly specified) | -1 | 0.15
38 | COc1ccc(NC(=O)OCC(F)(F)C(F)F)cc1Cl | -9 | 1.25
39 | Cc1cccc(CN(Cc2ccccn2)c2ncnc3c2ncn3C)c1 | -8 | 1.23
40 | Cc1ccc2nc(-c3ccc(N(C)C)cc3)sc2c1 | -6 | 0.72
41 | COc1ccc2cc([C@@H]3CN(Cc4nnc(C5CC5)o4)CCO3)ccc2c1 | -10 | 1.44
42 | Cc1cc(C)cc(CN2CCCN(c3ccc(C)cc3NS(=O)(=O)c3ccc(Cl)cc3)C2=O)c1 | -5 | 0.69
43 | CC(C)Oc1ccc(C(=O)NCc2ccc(-c3cccnc3)nc2)cc1 | 0 | 0.01
